Measured values: PubChem BioAssay AID1508624 (National Center for Advancing Translational Sciences (NCATS), 2021)
Hit rate of the full screen: of about 48,000 compounds, about 120 (0.25%) were called active. Inconclusive results (about 4%) are left out. The call rests on the fitted dose curve; in most records, active means well fitted activation curve with a large enough effect; inconclusive means small, poorly fitted or top-dose-only effect, or another doubt; inactive means no such curve, though single readings can be large or run the other way. This is one part of the list.

Assay: Primary qHTS for Identification of Small Molecule Activators of Huntingtin-Antisense Promoter Activity; further: nearly all actives have a fitted effect of over 55% in size
Details: HEK293 HTT-AS promoter firefly luciferase reporter (activity 0% = vehicle and -100% = no light), 24 h; series mostly up to 57.5 µM; activity change, positive = activation: at the top concentration
How it was run: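 Firefly luciferase readout (Dual-Glo, 10 min RT) after 24 h, 37 °C compound exposure (final up to 57.5 uM) of HEK293 reporter cells cultured 24 h beforehand; PTC124 at 50 uM final as control inhibitor; activity scaled vehicle 0%, zero RLU -100%.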

Activity change, positive = activation, inactive:
CCc1ccc2c(c1)NC(c1ccc(C)cc1)=NC(c1cccs1)=N2 23.9%
CCn1c(=O)sc2cc(NS(=O)(=O)c3ccc(C)cc3)ccc21 -26.9%
CCOC(=O)N1CCc2c(sc3c2c(=O)n(Cc2ccccc2)c(=O)n3CC(=O)Nc2ccc(C)cc2C)C1 -13%
COc1ccc(CCNC(=O)c2c(C)oc3ncnc(N4CCOCC4)c23)c(OC)c1 -10.6%
Cc1ccc(S(=O)(=O)Nc2cc3c(cc2C)n(C)c(=O)c(=O)n3C)c(C)c1 -18.6%
Cc1cc(C)cc(Nc2cc(C(=O)NC3CCC(C)CC3)c3ccccc3n2)c1 (centres undefined) -5.27%
CCCN1C(C(=O)c2ccccc2)=C(OC(=O)c2ccc(OC)cc2)c2ccccc2S1(=O)=O -9.15%
CCc1nc(-c2cc(S(=O)(=O)N3CCN(c4ccccc4F)CC3)ccc2OC)no1 -20.1%
Cn1nnnc1SCCCNCc1ccc(-c2ccc(F)c(Cl)c2)o1 -15.3%
CN(Cc1ccc(F)cc1)S(=O)(=O)c1nnc(NC(=O)c2ccccc2Cl)s1 -14.7%
O=C(Cn1c(=O)c(C(F)(F)F)nc2ccccc21)Nc1cccc(Br)c1 16.9%
CCc1ccc(NC(=O)CN2C(=O)CCSc3ccccc32)cc1 -18.6%
Cc1ccc(CNC(=O)C2CCCN(S(=O)(=O)c3cn(C)cn3)C2)cc1 (centres undefined) -3.26%
O=C(NCCc1ccccc1)c1ccc(CS(=O)(=O)Cc2ccccc2Cl)o1 -20.1%
Cc1cc(=O)n(CC(=O)NCc2ccc(OC(C)C)cc2)c2c1c(C)nn2-c1cccc(F)c1 -8.68%
Cc1cc(C)cc(NS(=O)(=O)c2ccc(N3CCCCS3(=O)=O)cc2)c1 -26.2%
Cc1c(C(=O)Nc2ccc(F)c(Cl)c2)oc2ccc(S(=O)(=O)N(C)C3CCCCC3)cc12 -30.3%
Cc1ccc(-n2ncc(C(=O)Nc3ccc4c(c3)OCO4)c2C2CCN(C(=O)OC(C)(C)C)CC2)c(C)c1 -23.8%
COc1cc(-c2noc(-c3ccc(NCc4ccco4)c([N+](=O)[O-])c3)n2)cc(OC)c1OC -9.3%
CCOC(=O)c1nc(Nc2ccccc2OC)c2ccccc2n1 -11.2%
Cc1cn2c(=O)cc(COc3ccc(NC(=O)c4ccccc4C)cc3)nc2s1 -2.13%
CCCCN(CC)C(=O)c1cc2c(=O)n3ccccc3nc2n1C 9.58%
CNCCC(Oc1ccc(C(F)(F)F)cc1)c1ccccc1 (centres undefined) -26.8%
CCc1ccccc1N(C)C(=O)c1cn(-c2cccc(OC)c2)c(=O)c2ccccc12 -36.2%
Cc1nc2n(c(=O)c1CCN1CCC(c3noc4cc(F)ccc34)CC1)CCCC2
O=C(Nc1ccc(F)cc1F)C1CCN(S(=O)(=O)c2ccc3[nH]c(=O)ccc3c2)CC1 -17.8%
CCc1ccc(NC(=O)Cn2nnc(C(=O)NCc3ccc(C)cc3)c2N)cc1 -8.53%
CCc1ccc(OCc2nc(-c3ccc(OC)c(OC)c3)no2)c(Br)c1 -14%
COc1cc(NC(=O)CCc2nc3cccnc3n2Cc2cccs2)cc(OC)c1OC -29.5%
CC1(C(=O)NC2CCCCC2)Cc2ccccc2C(=O)N1Cc1ccccc1Cl (centres undefined) -21.3%
O=C(CCc1nc2cccnc2n1-c1ccccc1)Nc1ccc(Cl)c(Cl)c1 -29.2%
CN(C)c1ccc(C2C=C(c3ccccc3)Nc3nnnn32)cc1 (centres undefined) 13.9%
CC(=O)c1ccc(N2C(=O)N(Cc3ccccc3C#N)c3ccccc3S2(=O)=O)cc1 -14.6%
CCOc1ccc(C(=O)NCC(c2ccc3c(c2)OCO3)N2CCOCC2)cc1 (centres undefined) -15.3%
COc1ccc(CNC(=O)CCNS(=O)(=O)c2cccc3nsnc23)cc1 -4.72%
CCOc1ccccc1CNC(=O)c1ccc(NC(=O)N2CCSc3ncccc32)cc1 -25.5%
COc1ccc2oc(=O)c(-c3cn4c(n3)sc3cc(OC)ccc34)cc2c1 1.07%
COc1ccc(OC)c(CNC(=O)Cn2nc(C)c3nn(-c4ccc(Cl)cc4)c(C)c3c2=O)c1 -27.3%
COc1ccc(/C=C/C(=O)Nc2nc3n(n2)C(c2ccccc2)C=C(c2ccc(Cl)cc2)N3)cc1 (centres undefined) -27.6%
COc1ccc2c(Sc3ccccc3)c(C(=O)NCCCN3CCCCC3)[nH]c2c1 -27.3%
CCc1ccccc1NC(=O)Nc1nnc(N(C)Cc2ccccc2)s1 -15.8%
C[C@@H](CN1CC(=O)NC(=O)C1)N1CC(=O)NC(=O)C1
Clc1ccc(N2CCN(c3ncnc4c3cnn4-c3ccccc3)CC2)cc1Cl -2.94%
COc1ccc(NC(=O)c2cc(S(=O)(=O)N3CCCCCC3)cn2C)cc1Cl -31.1%
COc1ccc(N(Cc2cccs2)C(=O)c2ccc(C(C)(C)C)cc2)cc1 -34.4%
COc1cc2[nH]c(=O)n(Cc3ccc(C(=O)N4CCN(c5cc(Cl)ccc5C)CC4)cc3)c(=O)c2cc1OC -16.6%
O=C(NCC(c1ccc2c(c1)OCO2)N1CCOCC1)C(=O)Nc1ccc(F)cc1F (centres undefined) 10.3%
O=C(Cn1cnc2c(oc3ccccc32)c1=O)Nc1ccc(OC(F)(F)F)cc1 1.79%
O=C(Nc1cccc(Cl)c1)N1CCC(CN2CCOCC2)CC1 13.5%
CC(=O)Nc1ccc(CC(=O)O)cc1 -6.9%
O=C(CN1C(=O)CC(c2ccco2)Sc2ccccc21)Nc1ccc(C(F)(F)F)cc1 (centres undefined) -36%
CC(C)(C)c1ccc(S(=O)(=O)c2cn(CC(=O)Nc3ccccc3)c3ccccc3c2=O)cc1 -22.9%
COc1ccccc1CNC(=O)Cc1csc2nc(-c3ccccc3)cn12 1.75%
Cc1ccc(CNC(=O)c2ccc3c(c2)N(Cc2ccccc2)C(=O)c2ccccc2S3(=O)=O)cc1 -9.41%
COC(=O)C1CCN(CC(=O)Nc2cc(C)c3c(=O)oc4ccccc4c3n2)CC1 -3.96%
O=C(Nc1nnc(S(=O)(=O)N2CCCc3ccccc32)s1)c1cccc(F)c1 -91.4%
COc1ccc(N(C(=O)c2cccc(C)c2)S(=O)(=O)c2ccc(C)cc2)cc1 -29.4%
O=C(CCC1N=C2c3ccccc3N=C(SCc3ccccc3F)N2C1=O)NCCc1ccccc1 (centres undefined) 5.38%
Cc1cc(C)c(NC(=O)Cn2ccn(-c3cccc(Cl)c3)c(=O)c2=O)c(C)c1 -15.4%
CCOC(=O)c1ccc(NC(=O)c2c(C)nn(-c3ccc(F)cc3)c2-n2cccc2)cc1 6.54%
Cc1ccc2c(c1)N(C(=O)C1CCN(S(=O)(=O)c3c(C)noc3/C=C/c3ccccc3F)CC1)CCO2 0.44%
CCn1c(SCc2ccc(F)cc2Cl)nnc1-c1nonc1NC(C)=O -22.3%
CCOc1ccc(CNC(=O)c2cccc(NC(=O)N3CCSc4ncccc43)c2)cc1 -16.4%
COc1ccc(CNC(=O)c2ccc3nc(CCc4ccccc4)oc3c2)cc1OC -55.8%
CCn1c(C(=O)N2CCC(C(=O)N3CCN(c4cc(C)ccc4C)CC3)CC2)cc2sccc21 -28.3%
C[C@H]1[C@H](NC(=O)/C(=N/OC(C)(C)C(=O)O)c2csc(N)n2)C(=O)N1S(=O)(=O)O (stereo in doubt) -3.85%
CC(=O)N1CCc2cc(S(=O)(=O)NC(CC(C)C)C(=O)Nc3ccc(C(C)C)cc3)ccc21 (centres undefined) -4.55%
CC(=O)N1c2ccc(S(=O)(=O)N3CCCCCC3)cc2CC1C(=O)NC(C)C (centres undefined) 1.88%
CCOC(=O)c1c(C)sc(-c2c(-c3ccc4c(c3)OCCO4)[nH]c3c2c(=O)n(C)c(=O)n3C)c1O -22%
Cc1cc(-c2ccc(C)c(S(=O)(=O)N3CCC(C)CC3)c2)on1 -40.6%
CCOC(=O)N1CCc2c(sc3c2c(=O)n(Cc2ccccc2)c(=O)n3Cc2cc(C)ccc2C)C1 -7.57%
CCCNC(=O)c1cnn2c(C)c(Cc3c(C)cc(C)cc3C)c(C)nc12 -47.4%
COc1ccc(NC(=O)c2cc3nc(-c4ccc(Cl)c(Cl)c4)cc(C(F)(F)F)n3n2)c(OC)c1 -8.61%
Cc1sc2ncn(CC(=O)Nc3ccc(F)cc3F)c(=O)c2c1S(=O)(=O)N1CCC(C)CC1 1.15%
CCOc1ccccc1NC(=O)N1CCC(n2c(C)nc3cccnc32)CC1 9.21%
COc1ccc(CNC(=O)CCc2cn(C)c3ccccc23)cc1 -12%
COc1ccc(C(=O)NC2CC(=O)N(c3ccc4c(c3)OCCO4)C2)cc1 (centres undefined) -14.2%
COc1cccc(N2CCN(S(=O)(=O)c3cn(C)c(C)n3)CC2)c1 -6.11%
CCC1Oc2ccc(C)cc2N(CC(=O)NCc2ccc(OC)cc2)C1=O (centres undefined) -15.9%
CCCCN1C(=O)c2[nH]nc(-c3ccccc3O)c2C1c1ccc(C(C)(C)C)cc1 (centres undefined) -60.8%
CCCn1c2ccccc2c2cnn(CC(=O)NCc3ccccc3Cl)c(=O)c21 -28.3%
CCN(CC)CCCNC(=O)Cc1ccc(NC(=O)N2CCCCc3ccccc32)cc1 -8.4%
O=c1oc2ccccc2cc1-c1nnc(Nc2ccc(Cl)cc2Cl)s1 4.55%
CC(=O)NC1CC(=O)N(c2ccc3c(c2)OCCO3)C1 (centres undefined) -1.31%
Cc1ccc(-c2nc3cc(Cl)ccc3o2)cc1NC(=O)c1cc([N+](=O)[O-])ccc1N1CCOCC1 6.85%
Cc1nc(-c2ccccc2)sc1-c1ccc(SCC(=O)Nc2cccc(C(F)(F)F)c2)nn1 -5.28%
CCC(=O)N1CCc2cc(Br)cc(S(=O)(=O)N3CCC(C(=O)Nc4ccccc4CC)CC3)c21 -3.02%
COc1cccc(C2CC(=O)Nc3cc4c(cc32)OCO4)c1OC(C)C (centres undefined) -36.9%
COc1cc(OC)c(NC(=O)C2CCN(C(=O)c3sc4nc[nH]c(=O)c4c3C)CC2)cc1Cl -22.9%
CC(C)Oc1ccc(CNC(=O)C2CCN(c3nc4ccccc4nc3C(F)(F)F)CC2)cc1 1.15%
CCc1nn(CCCC(=O)N2CCN(c3cc(Cl)ccc3C)CC2)c(=O)c2cc3occc3n12 -35.7%
COc1ccc(CC(=O)NC2CC(=O)N(c3cccc(F)c3)C2)cc1OC (centres undefined) -4.71%
CCOC(=O)c1c(C)n(S(=O)(=O)c2ccc(C)cc2C)c2ccc(NS(=O)(=O)c3ccc(C)cc3C)cc12 -32.2%
COc1ccccc1Nc1sc(C(=O)c2ccc3c(c2)OCO3)c(N)c1S(=O)(=O)c1ccccc1 -17%
